# Test results from PubChem BioAssay AID1240 (Sanford-Burnham Center for Chemical Genomics, 2008).
# Out of some 50,000 compounds screened, about 800 (1.6%) showed an effect of 50% or more. The list shows a part of the results.
# Target: Bcl-2-like protein 10 (Homo sapiens) (UniProt Q9HD36)
# Experiment: TR3 peptide-Bcl-B binding displacers, biochemical primary FP assay, phenotype converters (AID 1240);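 further: 0% = Bcl-B with tracer peptide and DMSO and 100% = tracer peptide lacking Bcl-B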
# Conditions: GST-Bcl-B / FITC-TR3 peptide fluorescence polarization; stronger effect = higher value; compound at 3.75 mg/L
# Sequence of UniProt Q9HD36 (Q9HD36 whole entry, looked up): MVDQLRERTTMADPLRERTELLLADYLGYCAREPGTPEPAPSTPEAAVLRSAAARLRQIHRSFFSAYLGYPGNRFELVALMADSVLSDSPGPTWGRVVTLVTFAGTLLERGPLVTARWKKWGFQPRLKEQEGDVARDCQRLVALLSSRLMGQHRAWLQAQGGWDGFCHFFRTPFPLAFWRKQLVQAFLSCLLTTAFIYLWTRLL
row,Compound,displacement
1,Cc1ccc(OCC(=O)Nc2cc(C(F)(F)F)cc(C(F)(F)F)c2)cc1C,6.8%
2,Cc1nc(N)sc1C(=O)N/N=C/c1ccc(O)cc1,-0.9%
3,O=C(CCC(NC(=O)OCc1ccccc1)C(=O)OCc1ccccc1)NCC(=O)OCc1ccccc1 (stereo not given),1.9%
4,CCOc1ccc(C(=O)Nc2ccc(Oc3ccccc3)cc2)cc1,-0.4%
5,COc1ccc(/C=C/C(=O)c2ccc3c(c2)OCCO3)cc1[N+](=O)[O-],3.4%
6,CCC1CCc2c(sc(NC(=O)c3ccc([N+](=O)[O-])cc3Cl)c2C(=O)OC)C1 (stereo not given),7.8%
7,CCOc1ccc(N(CC(=O)Nc2c(C)cccc2C)S(C)(=O)=O)cc1,0.1%
8,NC(=O)c1ccccc1NC(=O)c1cc([N+](=O)[O-])ccc1Cl,-6.5%
9,O=C1N/C(=N/N=C\c2cccc([N+](=O)[O-])c2)SC1Cc1ccc(Br)cc1 (stereo not given),-8%
10,Cc1ccc(/C=C2\SC(=S)N(NS(=O)(=O)c3ccc(C)cc3)C2=O)cc1,9.3%
11,Cc1[nH]c2ccc(C(=O)O)cc2c(=O)c1CC=C(Cl)Cl,-8.7%
12,CCOc1ccc2oc(-c3ccccc3)c(C(=O)O)c2c1,5.4%
13,Cc1cc(-n2c(C)cc(C=O)c2C)cc(C)c1Br,0%
14,O=[N+]([O-])c1ccc(Oc2ccc(S(=O)(=O)Nc3ccc(Cl)cc3)cc2)cc1,1.4%
15,Nc1ccc2oc(-c3cccc(Cl)c3)nc2c1,15.5%
16,CC(=O)c1cccc(NC(=O)c2ccc(Br)c(S(=O)(=O)N3CCCCC3)c2)c1,-2.2%
17,Cc1c(Cl)c(C(F)(F)F)nn1CC(=O)NCc1ccc(Cl)cc1,13.2%
18,O=C(/C=C/c1ccccc1Cl)Nc1cc(Cl)c(Cl)cc1Cl,2.1%
19,COc1ccc(OC)c(C(c2c(C)[nH]n(-c3ccccc3)c2=O)c2c(C)[nH]n(-c3ccccc3)c2=O)c1,4.4%
20,Cc1ccc(NC(=O)CCC2CCCCC2)cc1Cl,-9.1%
21,COc1ccc(OC)c(-n2cnnn2)c1,0.3%
22,Cc1cccnc1NC(=O)CCc1ccccc1,4.5%

row,Compound,displacement
1,CN(c1ccccc1)c1ccc(/C=C2\C(=O)ON=C2c2cccc([N+](=O)[O-])c2)cc1,-9.6%
2,Cc1cc(/C=c2\sc3nc4ccccc4n3c2=O)c(C)n1C,0.7%
3,CC1=C(C(=O)Nc2ccccc2)C(c2ccccc2Cl)NC(=S)N1 (stereo not given),9.6%
4,CN1CCN(Cc2c(O)ccc3cc(-c4nc5ccccc5s4)c(=O)oc23)CC1,121%
5,O=C(/C=C/c1ccco1)Nc1ccccc1-c1ccccc1,-14.5%
6,CCOC(=O)CCCN1C(=O)/C(=C\c2cccs2)SC1=S,5.8%
7,CCCCCCCc1c(C#N)c(N)[nH]c(=S)c1C#N,0%
8,CN(c1ccc(C(=O)NCCSCc2ccccc2)cc1)S(=O)(=O)c1ccccc1,4.4%
9,C=CCOC(=O)C1=C(C)NC(=O)NC1c1cccc(Br)c1 (stereo not given),-4.1%
10,CCOC(=O)c1ccc(N2C(=O)C3C(C2=O)C2(C)c4ccccc4C3(C)c3ccccc32)cc1 (stereo not given),10.3%
11,CC(=O)Oc1ccc2c(C)c(C)c(=O)oc2c1,6.4%
12,COc1ccc(Cl)cc1C(=O)N(C(C)C)C(C)C,13%
13,Nc1cc(Cl)c(S(=O)(=O)Nc2ccccc2)cc1S(=O)(=O)Nc1ccccc1,1%
14,O=C(CCN1C(=O)/C(=C\c2cccs2)SC1=S)Nc1ccccc1C(=O)O,19.8%
15,O=C(COc1ccc2ccccc2c1)Nc1ccccc1F,8.3%
16,COc1ccc(S(=O)(=O)N(CCc2ccccc2)CC(=O)Nc2ccc(C)cc2C)cc1,-15.1%
17,CCOC(=O)CCN(CP(C)(=O)OC(C)C)C(=O)OCC (stereo not given),11%
18,CC1CCc2c(sc(NC(=O)COc3ccc(Cl)cc3Cl)c2C#N)C1 (stereo not given),6.5%
19,CCC(C(=O)Nc1cc(Cl)ccc1Cl)c1ccccc1 (stereo not given),12%
20,COc1ccc(/C=C/C(=O)c2cccc(Br)c2)cc1,2.5%
21,CCN1CCN(S(=O)(=O)c2cc(Cl)ccc2Cl)CC1,-10.9%
22,COc1ccccc1NC(=O)c1cc(-c2ccccc2C)nc2ccccc12,-8.4%

row,Compound,displacement
1,CCCCOc1cc2oc(=O)cc(C)c2cc1OCCCC,-8.4%
2,Fc1ccc(NC(=S)N(CCN(C(=S)Nc2ccc(F)cc2)c2ccccc2)c2ccccc2)cc1,-3.3%
3,COC(=O)c1ccccc1NC(=O)c1ccc(CN2CCOCC2)cc1,2.8%
4,CCOC(=O)c1ccc(NC(=O)CN(c2ccccc2OC)S(=O)(=O)c2ccccc2)cc1,5.1%
5,CCCCOC(=O)c1cccc(NC(=O)COc2ccc(C)cc2C)c1,0%
6,CC12c3ccccc3C(C)(c3ccccc31)C1C(=O)NC(=O)C12 (stereo not given),11%
7,CC(=O)c1ccc(/C=C2\SC(=S)N(C)C2=O)o1,16.2%
8,N#C/C(=C\c1cn(CC(=O)Nc2ccccc2)c2ccccc12)C(=O)Nc1ccccc1,-36.7%
9,CCOC(=O)C1=C(O)/C(=C/c2ccco2)SC1=Nc1ccc(C)cc1,6%
10,Cc1cc(=O)oc2cc(OCC(=O)c3ccc(Cl)cc3)c(Cl)cc12,-10.6%
11,COc1cc2c(cc1[N+](=O)[O-])CCCC2,-11.5%
12,O=C(c1ccccc1F)N1CCN(S(=O)(=O)c2ccccc2)CC1,-4.9%
13,CC(C)CCNC(=O)C(=O)Nc1ccccc1F,5.4%
14,NC(=S)N/N=C/c1ccc(C2C=CCC2)s1 (stereo not given),-13.8%
15,O=C(Nc1ccc2oc(-c3cccc(Cl)c3Cl)nc2c1)c1ccc([N+](=O)[O-])cc1,0%
16,O=C1C2=C(C(c3ccccc3)=NCCN2)C(c2ccc(F)cc2)N1c1ccccc1 (stereo not given),-5%
17,Cc1ccc(N2C(=O)/C(=C/c3cc(C)n(-c4cccnc4)c3C)C(=O)NC2=S)cc1C,7.6%
18,CC(Oc1ccccc1)C(=O)Nc1ccc2[nH]c(=O)[nH]c2c1 (stereo not given),-3.6%
19,CCN(CC)S(=O)(=O)c1ccc(NC(=O)CCc2ccccc2)cc1,-2.7%
20,COc1cc(C=C2C(=O)NC(=S)NC2=O)ccc1OCCC(C)C,11.4%
21,COc1ccc(C(=O)NCc2ccncc2)cc1[N+](=O)[O-],-1.8%
22,O=C(N=Nc1c(O)[nH]c2ccccc12)c1cc(-c2ccc(Br)cc2)nc2ccccc12,-16.1%

row,Compound,displacement
1,CC(=O)Cc1c(C(=O)O)c(C)nn1-c1ccccc1,-13.1%
2,Cc1ccc(C(=O)O/N=C(\N)c2cccnc2)cc1,-6.8%
3,COc1cc(/C=C(/C#N)C(=O)Nc2cccc(Br)c2)c([N+](=O)[O-])cc1OC,-8.1%
4,CC(C)(O)C#Cc1ccc(C(=O)NCCc2ccccc2)cc1,1%
5,O=C(CN(c1cccc(Cl)c1)S(=O)(=O)c1ccccc1)NC12CC3CC(CC(C3)C1)C2,-10.4%
6,O=c1nc(/C=C/c2cc([N+](=O)[O-])ccc2Cl)cc(C(F)(F)F)[nH]1,-7.6%
7,O=C(O)c1cccc(Nc2nc(-c3ccc(Br)cc3)cs2)c1,14.1%
8,COc1ccc2c(c1)CCC1C2=NN(/C(C)=C/C(C)=O)C1c1ccc(Br)cc1 (stereo not given),14.8%
9,O=C1NC(=S)N(c2ccccc2)C(=O)/C1=C\c1ccc(N2CCCC2)cc1,-3.8%
10,CCOc1ccc2cc(S(=O)(=O)NCc3cccnc3)ccc2c1,-4%
11,O=C1c2ccccc2C(=O)N1CCc1nc2ccccc2c(=O)n1Cc1ccco1,-6.1%
12,COC(=O)c1c(C)oc2cc(Br)c(OCC(N)=O)cc12,6.1%
13,Cc1cc(C)nc(SCC(=O)OCC(=O)Nc2ccc(S(N)(=O)=O)cc2)n1,10.1%
14,Fc1c(F)c(F)c2c(c1F)Oc1ccccc1O2,11.8%
15,CC(C)CC(=O)N1CCN(Cc2ccccc2F)CC1,-16.6%
16,COc1ccccc1OCC(=O)Nc1ccc(Nc2ccccc2)cc1,15%
17,COc1cccc(/C=N/Nc2ncc(Br)cn2)c1O,-10.9%
18,Cc1ccc(NC(=O)COc2ccccc2C)c([N+](=O)[O-])c1,-2.9%
19,COc1ccc(NC(=O)Cc2ccccc2OC)c(OC)c1,7.1%
20,CN(C)CCOC(=O)CCN1C(=O)/C(=C/c2ccccc2Cl)SC1=S,17.4%
21,O=C(CC(c1ccccc1)c1ccccc1)Nc1ccccc1Br,-11.6%
22,O=C(c1nc2nc(-c3ccccc3)cc(C(F)(F)F)n2n1)N1CCCCC1,-13.9%

row,Compound,displacement
1,CC(C)=CCCC(C)NC(=O)NC1CCCCC1 (stereo not given),5.7%
2,O=C1C(=O)N(Cc2cccnc2)C(c2ccc(F)cc2)/C1=C(\O)c1ccccc1 (stereo not given),-8%
3,CN1C(=O)C(c2ccc(O)cc2)(c2ccc(O)cc2)c2ccccc21,-0.7%
4,CCCCc1nc(N)c(C#N)c(-c2ccco2)c1CCC,8.4%
5,O=C1C(=O)N(c2cccnc2)C(c2ccc(Br)cc2)/C1=C(\O)c1ccc(Cl)cc1 (stereo not given),-4.9%
6,Clc1ccc(C2=CSC3=NCCN23)cc1,6.3%
7,COc1ccc(S(=O)(=O)N2CCc3ccccc32)cc1,-13.5%
8,COc1cccc(N2C(=O)C=C(C)C2=O)c1,1.4%
9,Cc1ccc(C(=O)C[n+]2cc(-c3ccccc3)n3c2CCCCC3)cc1,2.5%
10,Fc1ccc(-c2csc(Nc3ccc(Cl)cc3)n2)cc1,-1.6%
11,COn1c(=O)c(-c2ccccc2)[n+]([O-])c2ccccc21,15.9%
12,O=C(CSc1ccc2ccccc2n1)N/N=C/c1ccc(Br)cc1,-4.8%
13,Cc1c(C(=O)O/N=C(\N)Cc2ccc(Cl)cc2Cl)cccc1[N+](=O)[O-],13%
14,O=C(CC1(C(F)(F)F)NCCO1)c1cccs1 (stereo not given),-8.4%
15,COc1ccc(C(=O)N2CCN(C(=O)c3ccco3)CC2)cc1OC,-13.5%
16,COc1cc(/C=c2\sc3nc4ccccc4n3c2=O)cc(Cl)c1OCc1ccccc1Cl,2.3%
17,Cc1ccc(NC(=O)c2c(N)sc3c2CCC3)c(C)c1,-16.9%
18,COc1ccc(C2Nc3ccccc3C(=O)N2Cc2ccccc2)cc1Cn1cc([N+](=O)[O-])cn1 (stereo not given),13.2%
19,CC1=C(C(=O)OCC2CCCO2)C(c2cccc(O)c2)NC(=O)N1 (stereo not given),9.3%
20,Cc1cc(/C=N/NC(N)=O)c(C)n1-c1ccc(N(C)C)cc1,33.9%
21,COc1ccccc1NC(=O)C(Cc1ccccc1)NS(=O)(=O)c1ccc(C)cc1 (stereo not given),2.8%
22,O=Cc1ccc(OC(=O)c2ccccc2I)cc1,6.7%
